At least one peptide structure holds a part that was inferred or is arguable (an end, a ring closure or a residue). Bridge positions count the residues as written; N and C are the ends. Square brackets hold non-standard residues; d marks the D form. Peptide text beside a SMILES is read from it. * marks the point of attachment. Acetyl(1-adamantyl) = O=C(CC12CC3CC(CC(C3)C1)C2)*; Adamantane1carbonyl = O=C(C12CC3CC(CC(C3)C1)C2)*; Fluorene(1-CO) = O=C(c1cccc2c1Cc1ccccc1-2)*; Phe(4-Cl) = N[C@@H](Cc1ccc(Cl)cc1)C(=O)O; Phe(4-F) = N[C@@H](Cc1ccc(F)cc1)C(=O)O; Thz(5,5-Me2) = CC1(C)SCN[C@@H]1C(=O)O; Fmoc = O=C(OCC1c2ccccc2-c2ccccc21)*; Cha = N[C@@H](CC1CCCCC1)C(=O)O; Thz = O=C(O)[C@@H]1CSCN1
Experiments:
[1] = tested on: Jurkat T-cells adhering to IL-1 stimulated human umbilical vein endothelial cell monolayers; experiment: Jurkat-endothelial cell adhesion assay (Cell Adhesion Inhibition Assay II); type: cell-based; conditions: for 10 μM% (percentage inhibition at 10 μM): 10 μM peptide; for 10 μM% (percentage inhibition at 10 μM) / 200 μM% (percentage inhibition at 200 μM): Jurkat cells on IL-1 stimulated endothelial monolayers, 20 min at 37° C.; for 200 μM% (percentage inhibition at 200 μM): 200 μM peptide; for IC50: Jurkat-endothelial cell adhesion, peptides tested at 200, 40, 8, 1.6, 0.32, 0.064 μM
Experimental: The following assay established the activity of the present compound in inhibiting cell-cell adhesion in a representative in vitro system. This assay measures the adhesive interactions of T-cells to endothelial cell monolayers in the presence of a test compound. The test compound is added in increasing concentrations with T-cells and this is added to endothelial cell monolayers. The plates are incubated, washed and the percentage of attached cells is quantitated.
Human umbilical vein endothelial cells were purchased from Clonetics (San Diego, Calif.) at passage number 2. The cells were grown on 0.5% porcine skin gelatin pre-coated flasks (Sigma, St. Louis, Mo.) in EGM-UV media (Clonetics, San Diego, Calif.) supplemented with 10% fetal bovine serum. Cells were refed every 2-3 days reaching confluence by day 4 to 6. […] The endothelial cells were not used following passage 14-15.
The T-cell line Jurkat was obtained from American Type Tissue Culture Collection (Rockville, Md.). The cells were cultured in RPMI media containing 10% fetal calf serum. The cells were washed twice with Hank's Balanced Salt Solution (HBSS) and resuspended in Dulbecco's […] Eagle's Media (DMEM) containing 2.5 mg/ml Human Serum Albumin (HSA). The Jurkat cells (1×10^6 cells/ml) were stained with 10 μg/ml fluorescein diacetate (Sigma, St. Louis, Mo.) in HSSS containing 5% fetal calf serum. The cells were stained for 15 minutes in the dark at room temperature, washed 2 times, and resuspended in a DMEM-HSA solution.
Confluent endothelial monolayers grown in 96-well tissue culture plates were stimulated for 4 hours at 37° C. with 0.1 ng/ml (^~ 50 U/ml) recombinant IL-1 (Amgen, Thousand Oaks, Calif.). Following this incubation, the monolayers were washed twice with HBSS and 0.1 ml of DMEM-HSA solution was added. Jurkat cells (5×10^5 cells) were combined with appropriate concentrations of a peptide to be tested and 0.1 ml of the Jurkat-peptide mixture were added to the endothelial cell monolayers. Generally, 200 and 10 μM peptide concentrations were tested. […] The plates were placed on ice for 5 minutes to allow for Jurkat cell settling and then incubated at 37° C. for 20 minutes. Following this incubation, the monolayers were washed twice with PBS containing 1 mM calcium chloride and 1 mM magnesium chloride and the plates were read using a Pandex Fluorescence Concentration Analyzer (Baxter, Mundelein, Ill.). Fluorescence in each well was measured as arbitrary fluorescence units and percent adhesion in the absence of a peptide was adjusted to 100% and the percentage adhesion in the presence of the peptide was calculated. Monolayers were also fixed in 3% paraformaldehyde and evaluated microscopically to verify adhesion.

[2] = tested on: U937 cells (fibronectin receptor) adhering to fibronectin-coated wells; conditions: for IC50: read-out: IC50 μM, U937 cells on fibronectin-coated wells, 60 min at 37° C., concentration at which adhesion is inhibited to 50% of control

Row | SMILES | IC50 [2] [µM] | also measured
1 | N=C(N)NCCC[C@H](NC(=O)c1cccc2c1Cc1ccccc1-2)C(=O)N[C@H]1CSSC[C@@H](C(=O)O)NC(=O)[C@@H]2CSCN2C(=O)[C@H](CC(=O)O)NC1=O [Peptide 164, (1-FCA)-RC*D-(3-thioPro)C*] ({Fluorene(1-CO)}-RCD[Thz]C-OH; disulfide 2-5) | – | 10 μM% (percentage inhibition at 10 μM) [1]: 16%; 200 μM% (percentage inhibition at 200 μM) [1]: 9%; IC50 [1]: 0.09 µM
2 | N=C(N)NCCC[C@H](NC(=O)CC12CC3CC(CC(C3)C1)C2)C(=O)N[C@H]1CSSC[C@@H](C(=O)O)NC(=O)[C@@H]2CCCN2C(=O)[C@H](CC(=O)O)NC1=O [Peptide 148, (Ada)-RC*DPC*] ({Acetyl(1-adamantyl)}-RCDPC-OH; disulfide 2-5) | – | 10 μM% (percentage inhibition at 10 μM) [1]: 58%; 200 μM% (percentage inhibition at 200 μM) [1]: 29%; IC50 [1]: 22 µM
3 | CC(C)C[C@@H]1NC(=O)[C@@H](N)CSSC[C@@H](C(=O)O)NC(=O)[C@@H]2CCCN2C(=O)[C@H]([C@@H](C)O)NC(=O)[C@H](CC(=O)O)NC(=O)CNC(=O)[C@H](CCCNC(=N)N)NC1=O [Peptide 142, C*LRGDTPC*] (H-CLRGDTPC-OH; disulfide 1-8) | – | 10 μM% (percentage inhibition at 10 μM) [1]: 98%; 200 μM% (percentage inhibition at 200 μM) [1]: 25%
4 | N=C(N)NCCC[C@H](NC(=O)OCC1c2ccccc2-c2ccccc21)C(=O)N[C@H]1CSSC[C@@H](C(=O)O)NC(=O)[C@@H]2CCCN2C(=O)[C@H](CCC(=O)O)NC1=O [Peptide 154, (FMOC)-RC*EPC*] (Fmoc-RCEPC-OH; disulfide 2-5) | – | 10 μM% (percentage inhibition at 10 μM) [1]: 42%; 200 μM% (percentage inhibition at 200 μM) [1]: 10%; IC50 [1]: 4 µM
5 | N=C(N)NCCC[C@@H]1NC(=O)[C@@H](N)CSSC[C@@H](C(N)=O)NC(=O)[C@@H]2CSCN2C(=O)[C@H](Cc2ccc(Cl)cc2)NC(=O)[C@H](CC(=O)O)NC(=O)CNC1=O [Peptide 89, C*RGD(p-chloro-Phe)-(3-thioPro)C*-NH2] (H-CRGD[Phe(4-Cl)][Thz]C-NH2; disulfide 1-7) | 15 | –
6 | N=C(N)NCCC[C@H](N)C(=O)N[C@H]1CSSC[C@@H](C(=O)O)NC(=O)[C@@H]2CCCN2C(=O)[C@H](CO)NC(=O)[C@H](CC(=O)O)NC1=O [Peptide 35, RC*DSPC*] (H-RCDSPC-OH; disulfide 2-6) | 1040 | –
7 | N=C(N)NCCC[C@H](N)C(=O)N[C@H]1CSSC[C@@H](C(=O)O)NC(=O)[C@@H]2CCCN2C(=O)[C@H](Cc2ccccc2)NC(=O)[C@H](CC(=O)O)NC1=O [Peptide 77, RC*DFPC*] (H-RCDFPC-OH; disulfide 2-6) | 622 | –
8 | N=C(N)NCCC[C@H](N)C(=O)N[C@H]1CSSC[C@@H](C(=O)O)NC(=O)[C@H](CC2CCCCC2)NC(=O)[C@H](CC(=O)O)NC1=O [Peptide 102, RC*D(CHA)C*] (H-RCD[Cha]C-OH; disulfide 2-5) | 182 | –
9 | COc1ccc(C[C@@H]2NC(=O)[C@H](CC(=O)O)NC(=O)CNC(=O)[C@H](CCCNC(=N)N)NC(=O)[C@@H](N)CSSC[C@@H](C(=O)O)NC(=O)[C@@H]3CCCN3C2=O)cc1 [Peptide 136, C*RGD(CH3 O-Tyr)PC*] (H-CRGDY(Me)PC-OH; disulfide 1-7) | 108 | –
10 | N=C(N)NCCC[C@H](N)C(=O)N[C@H]1CSSC[C@@H](C(=O)O)NC(=O)[C@@H]2CSCN2C(=O)[C@H](CCC(=O)O)NC1=O [Peptide 125, RC*E-(3-thioPro)C*] (H-RCE[Thz]C-OH; disulfide 2-5) | 10 | –
11 | N=C(N)NCCC[C@H](NC(=O)OCC1c2ccccc2-c2ccccc21)C(=O)N[C@H]1CSSC[C@@H](C(=O)O)NC(=O)[C@@H]2CSCN2C(=O)[C@H](CC(=O)O)NC1=O [Peptide 98, (FMOC)RC*D-(3-thioPro)C*] (Fmoc-RCD[Thz]C-OH; disulfide 2-5) | 16 | –
12 | CC1(C)SCN2C(=O)[C@H](CC(=O)O)NC(=O)[C@@H](NC(=O)[C@@H](N)CCCNC(=N)N)CSSC[C@@H](C(=O)O)NC(=O)[C@@H]21 [Peptide 121, RC*D(DTC)C*] (H-RCD[Thz(5,5-Me2)]C-OH; disulfide 2-5) | 10 | –
13 | N=C(N)NCCC[C@H](NC(=O)c1cccc2c1Cc1ccccc1-2)C(=O)N[C@H]1CSSC[C@@H](C(=O)O)NC(=O)[C@@H]2CSCN2C(=O)[C@H](Cc2ccc(F)cc2)NC(=O)[C@H](CC(=O)O)NC1=O [Peptide 79, (1-FCA)RC*D(p-fluoro-Phe)-(3-thio)-ProC*] ({Fluorene(1-CO)}-RCD[Phe(4-F)][Thz]C-OH; disulfide 2-6) | 249 | –
14 | N=C(N)NCCC[C@H](NC(=O)CC12CC3CC(CC(C3)C1)C2)C(=O)N[C@H]1CSSC[C@@H](C(=O)O)NC(=O)[C@@H]2CSCN2C(=O)[C@H](CCC(=O)O)NC1=O [Peptide 123, (Ada)-RC*E-(3-thioPro)C*] ({Acetyl(1-adamantyl)}-RCE[Thz]C-OH; disulfide 2-5) | 164 | –
15 | CC(C)C[C@@H]1NC(=O)[C@@H](N)CSSC[C@@H](C(=O)O)NC(=O)[C@@H]2CCCN2C(=O)[C@H](CO)NC(=O)[C@H](CC(=O)O)NC(=O)CNC(=O)[C@H](CCCNC(=N)N)NC1=O [drawing 22] (H-CLRGDSPC-OH; disulfide 1-8) | – | inhibiting cell adhesion to fibronectin ([2]; statement in words): active
16 | N=C(N)NCCC[C@@H]1NC(=O)[C@@H](N)CSSC[C@@H](C(=O)O)NC(=O)[C@@H]2CCCN2C(=O)[C@H](Cc2ccc(Cl)cc2)NC(=O)[C@H](CC(=O)O)NC(=O)CNC1=O [Peptide 75, C*RGD(p-chloro-Phe)PC*] (H-CRGD[Phe(4-Cl)]PC-OH; disulfide 1-7) | 12 | –
17 | N=C(N)NCCC[C@@H]1NC(=O)[C@@H](N)CSSC[C@@H](C(=O)O)NC(=O)[C@@H]2CCCN2C(=O)[C@H](CO)NC(=O)[C@H](CC(=O)O)NC(=O)CNC1=O [Peptide 10, C*RGDSPC*] (H-CRGDSPC-OH; disulfide 1-7) | 140 | –
18 | CC(C)[C@@H]1NC(=O)[C@H](CC(=O)O)NC(=O)CNC(=O)[C@H](CCCNC(=N)N)NC(=O)[C@@H](NC(=O)CC23CC4CC(CC(C4)C2)C3)CSSC[C@@H](C(=O)O)NC(=O)[C@@H]2CCCN2C1=O [Peptide 57, (Ada)-C*RGDVPC*] ({Acetyl(1-adamantyl)}-CRGDVPC-OH; disulfide 1-7) | 115 | –
19 | N=C(N)NCCC[C@H](NC(=O)C12CC3CC(CC(C3)C1)C2)C(=O)N[C@H]1CSSC[C@@H](C(=O)O)NC(=O)[C@@H]2CSCN2C(=O)[C@H](CCC(=O)O)NC1=O [Peptide 124, (AdaCA)-RC*E-(3-thioPro)C*] (Adamantane1carbonyl-RCE[Thz]C-OH; disulfide 2-5) | 47 | –
20 | N=C(N)NCCC[C@@H]1NC(=O)CNC(=O)[C@@H](N)CSSC[C@@H](C(N)=O)NC(=O)[C@@H]2CCCN2C(=O)[C@H](CO)NC(=O)[C@H](CC(=O)O)NC(=O)CNC1=O [Peptide 31, C*GRGDSPC*-NH2] (H-CGRGDSPC-NH2; disulfide 1-8) | 2720 | –
21 | N=C(N)NCCC[C@H](N)C(=O)N[C@H]1CSSC[C@@H](C(=O)O)NC(=O)[C@@H]2CCCN2C(=O)[C@H](CC(=O)O)NC1=O [Peptide 49, RC*DPC*] (H-RCDPC-OH; disulfide 2-5) | 32 | –
22 | CC(C)C[C@H]1NC(=O)[C@@H](N)CSSC[C@@H](C(N)=O)NC(=O)[C@@H]2CCCN2C(=O)[C@H](CO)NC(=O)[C@H](CC(=O)O)NC(=O)CNC(=O)[C@H](CCCNC(=N)N)NC1=O [Peptide 7, C*(dL)RGDSPC*-NH2] (H-C[dL]RGDSPC-NH2; disulfide 1-8) | 924 | –
23 | N=C(N)NCCC[C@@H]1NC(=O)[C@@H](NC(=O)c2cccc3c2Cc2ccccc2-3)CSSC[C@@H](C(=O)O)NC(=O)[C@@H]2CSCN2C(=O)[C@H](Cc2ccccc2)NC(=O)[C@H](CC(=O)O)NC(=O)CNC1=O [Peptide 134, (1-FCA)C*RGDF-(3-thioPro)C*] ({Fluorene(1-CO)}-CRGDF[Thz]C-OH; disulfide 1-7) | 106 | –
24 | CC(C)[C@@H]1NC(=O)[C@H](CC(=O)O)NC(=O)[C@@H](NC(=O)[C@@H](N)CCCNC(=N)N)CSSC[C@@H](C(=O)O)NC1=O [Peptide 104, RC*DVC*] (H-RCDVC-OH; disulfide 2-5) | 35 | –
25 | N=C(N)NCCC[C@@H]1NC(=O)[C@@H](N)CSSC[C@@H](C(=O)O)NC(=O)[C@H](CC2CCCCC2)NC(=O)[C@H](CC(=O)O)NC(=O)CNC1=O [Peptide 71, C*RGD(CHA)C*] (H-CRGD[Cha]C-OH; disulfide 1-6) | 160 | –

From US5721210A, “Cyclic cell adhesion modulation compounds” (priority 1995, dated 1998)
